This is an account of results in the supplement of paper PMC3334620.

The full ranking holds about 33,000 sequences; the median of “E-score (-0.5 to 0.5)” is about -0.04, and the highest 2% start at about 0.36. Some of the results follow.

This test addresses T1, Hmlalpha2 (UniProt P0CY09).
T1 sequence: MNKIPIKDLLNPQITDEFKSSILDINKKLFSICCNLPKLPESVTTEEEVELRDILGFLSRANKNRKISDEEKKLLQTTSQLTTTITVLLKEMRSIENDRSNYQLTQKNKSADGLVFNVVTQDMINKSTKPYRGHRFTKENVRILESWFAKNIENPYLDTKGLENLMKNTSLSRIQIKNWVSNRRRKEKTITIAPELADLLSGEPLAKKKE
Briefly: PBM E-score (8-mer binding enrichment) (E-score (-0.5 to 0.5)); higher = stronger / more preferred TF binding; most listed sequences are background and not binding sites. To be noted: protein concentration: 200 nM; construct: GST-full length. The essentials: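 PURExpress in vitro transcription/translation supplied GST-tagged yeast transcription factors, either full-length or DNA-binding domain. Applied at about 100-200 nM to universal all-10-mer Agilent arrays double-stranded by primer extension, the bound protein was detected with fluorescent anti-GST. E-scores, modified Wilcoxon-Mann-Whitney statistics, were given by the Universal PBM Analysis Suite to ungapped eight-base words pooled with their reverse complements after masliner normalisation.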
Regarding CCGATTTC, the “PBM E-score” value was -0.182.

As for ATACCAAA, the “PBM E-score” value came to 0.059.

Consider ATGCACTC, for which the “PBM E-score” value was -0.0217.

Turning to ACAGATAG, the “PBM E-score” value was 0.0286.

Take TACTATGA: the “PBM E-score” value was determined as 0.0132.

As for AGTCGGAC, the “PBM E-score” value was -0.0905.

In the case of ATTTATTG, the “PBM E-score” value was 0.11.

In the case of ATACCGCG, the “PBM E-score” value turned out to be 0.0219.

For the sequence GTTGGACA, the “PBM E-score” value is 0.139.

Consider ATAGAAAG, for which the “PBM E-score” value was -0.134.

Regarding GAGCGCTC, the “PBM E-score” value is -0.252.

Take AACGGCAG: the “PBM E-score” value is -0.0869.

AAGTAAGT: the “PBM E-score” value is 0.00158.

In the case of ACTTATAC, the “PBM E-score” value was 0.124.

With ATTGTGTC, the “PBM E-score” value is 0.233.

Take GATCTCGC: the “PBM E-score” value was -0.207.

For CAATTCTC, the “PBM E-score” value was -0.0404.

As to GACCATCA, the “PBM E-score” value was -0.053.

With CAAGTTGA, the “PBM E-score” value was -0.00258.

Regarding GTTGCCTA, the “PBM E-score” value stood at 0.0217.

For CTGCCGCC, the “PBM E-score” value is -0.331.

As for AAAGTTAA, the “PBM E-score” value was found to be 0.221.

AAACTTAG: the “PBM E-score” value is -0.0066.

In the case of ATCTGCCC, the “PBM E-score” value was -0.0692.

In the case of TCGATACA, the “PBM E-score” value turned out to be 0.0987.

Take TTCGCGAA: the “PBM E-score” value was determined as 0.0829.

As for CATAGATA, the “PBM E-score” value is 0.00388.

On to CGGAAAGC, for which the “PBM E-score” value was -0.114.

Regarding ATCGCACC, the “PBM E-score” value was -0.13.

With CCAAGTGA, the “PBM E-score” value is -0.103.

In the case of AAGGTTCC, the “PBM E-score” value is -0.137.

Regarding GGCGTACC, the “PBM E-score” value was -0.0747.

ACAGTGAT: the “PBM E-score” value turned out to be 0.113.

As for CCGATAAC, the “PBM E-score” value was -0.00703.

Turning to ATTAGGAG, the “PBM E-score” value was -0.0455.

For the sequence CAGACATC, the “PBM E-score” value was -0.107.

Consider ATGGAAGC, for which the “PBM E-score” value is -0.256.

AATGCGGG: the “PBM E-score” value is -0.00389.

Take GGCGGTAA: the “PBM E-score” value turned out to be 0.0735.

Take GTTTTGAA: the “PBM E-score” value worked out at 0.315.

In the case of CATGGAGA, the “PBM E-score” value is 0.029.

CCAGGAGA: the “PBM E-score” value is -0.152.

GGATCGCA: the “PBM E-score” value was -0.071.

In the case of CCCCTAAA, the “PBM E-score” value is -0.264.

As for CCTGATAA, the “PBM E-score” value is -0.0691.

Regarding TACTTTGA, the “PBM E-score” value is 0.149.

As to TAACGGTA, the “PBM E-score” value is -0.0608.

In the case of GGGTCCGA, the “PBM E-score” value is -0.134.

With CATCGCTC, the “PBM E-score” value is -0.209.

On to CCTAACAA, for which the “PBM E-score” value was determined as 0.205.

Regarding CAGGCTGC, the “PBM E-score” value was -0.0517.

GTATTAAA: the “PBM E-score” value came out at 0.307.

As to TAGGTAGA, the “PBM E-score” value came to 0.0302.

As for AAGTAAAG, the “PBM E-score” value turned out to be 0.0486.

For the sequence ATTCCCAG, the “PBM E-score” value came out at 0.0568.

Consider CCTTCAAA, for which the “PBM E-score” value is 0.119.

GTACTCAC: the “PBM E-score” value came out at 0.14.

On to TTGTCAAA, for which the “PBM E-score” value came out at 0.262.

On to CTGGCGAC, for which the “PBM E-score” value is -0.239.

As for AACCGTCA, the “PBM E-score” value turned out to be 0.0223.

Regarding AACCTTCG, the “PBM E-score” value is -0.0554.

Turning to CGTCTCTA, the “PBM E-score” value is -0.131.

With GCAAATAA, the “PBM E-score” value was 0.216.

For ATATGCTA, the “PBM E-score” value is -0.00111.

CCTCCCAA: the “PBM E-score” value was -0.146.

As for GAACTAGA, the “PBM E-score” value came out at 0.0699.

As for ACGCTGCT, the “PBM E-score” value was 0.146.

With CAAATTGC, the “PBM E-score” value was 0.0319.

GGAGGAGA: the “PBM E-score” value was -0.203.

In the case of CTTGAATA, the “PBM E-score” value was 0.0228.

For the sequence GCTTCTAC, the “PBM E-score” value is 0.128.

For AGCAATGG, the “PBM E-score” value was -0.0784.

As to AGGACAGA, the “PBM E-score” value was -0.0158.

On to ATGGTGAG, for which the “PBM E-score” value is -0.0828.

For GACCAGTC, the “PBM E-score” value is -0.168.

Take CCGGTGAC: the “PBM E-score” value was -0.268.

In the case of ACTAGCAC, the “PBM E-score” value was -0.161.

Take ATTTTATA: the “PBM E-score” value came to 0.232.

Regarding AGTTGTAA, the “PBM E-score” value was found to be 0.248.

CTCCGATA: the “PBM E-score” value was -0.196.

As to AGTACGGC, the “PBM E-score” value came out at 0.074.

As to GCTTGAGA, the “PBM E-score” value is -0.223.

Consider CTAGACGA, for which the “PBM E-score” value was -0.137.

As for ATAGTTTA, the “PBM E-score” value came out at 0.222.

On to ACACCGGG, for which the “PBM E-score” value is -0.00495.

For AGACTGGG, the “PBM E-score” value was -0.175.
